Data taken from US5157019A, “Serine protease inhibitors” (Monsanto Company, priority 1991, dated 1992).
Values joined by “and” are separate entries in the source; they are usually repeats but may differ in a detail not shown here. Equal entries are not always repeated. Not every detail of the peptide structures is certain; ends, links or a residue may be inferred. Ends that are not written are not given here. Peptide text beside a SMILES is read from it.

Legend:
[1] = test system: classical pathway of complement activation; assay: Hemolytic assay, classical pathway (lysis of EA cells by normal human serum); format: cell-based
[2] = test system: alternative pathway of complement activation; assay: Hemolytic assay, alternative pathway (lysis of ER cells by normal human serum); format: cell-based

With `CC[C@H](C)[C@H](NC(=O)[C@H](CC(C)C)NC(=O)[C@H](Cc1ccccc1)NC(=O)[C@@H](NC(=O)[C@H](Cc1ccccc1)NC(=O)[C@@H]1CCCN1C(=O)[C@H](CCCCN)NC(=O)[C@H](CC(N)=O)NC(=O)[C@H](Cc1ccccc1)NC(=O)[C@H](CCCCN)NC(=O)[C@@H](NC(=O)[C@H](CCC(=O)O)NC(=O)[C@@H]1CCCN1C(=O)[C@@H]1CCCN1)C(C)C)C(C)C)C(=O)O` [Peptide 1] the “% inhibition, classical pathway (CP)” value ([1]; 200 μM peptide) was 0% and the “% inhibition, alternative pathway (AP)” value ([2]; 200 μM peptide) was 0%.

In the case of `CC[C@H](C)[C@H](NC(=O)[C@H](Cc1c[nH]cn1)NC(=O)[C@H](CCCCN)NC(=O)[C@@H](NC(=O)[C@H](CS)NC(=O)[C@H](Cc1ccccc1)NC(=O)[C@H](CC(C)C)NC(=O)[C@H](Cc1ccccc1)NC(=O)[C@@H]1CCCN1C(=O)[C@H](Cc1c[nH]cn1)NC(=O)[C@H](CC(=O)O)NC(=O)[C@H](C)NC(=O)[C@H](CCCNC(=N)N)NC(=O)[C@H](Cc1ccccc1)NC(=O)[C@H](CCC(=O)O)NC(=O)[C@H](CCC(=O)O)NC(=O)[C@H](CO)NC(=O)[C@@H](NC(=O)[C@H](CO)NC(=O)[C@H](C)NC(=O)[C@H](C)NC(=O)[C@H](CC(=O)O)NC(=O)[C@@H](NC(=O)CNC(=O)[C@H](C)NC(=O)[C@@H](N)CCC(=O)O)C(C)C)C(C)C)[C@@H](C)CC)C(=O)N[C@@H](C)C(=O)N[C@H](C(=O)N[C@@H](CC(N)=O)C(=O)N[C@@H](C)C(=O)N[C@H](C(=O)N[C@@H](CC(C)C)C(=O)N[C@@H](Cc1ccccc1)C(=O)N[C@@H](Cc1ccccc1)C(=O)NCC(=O)N[C@@H](CCCNC(=N)N)C(=O)N[C@@H](CS)C(=O)N[C@H](C(=O)N[C@@H](CO)C(=O)N1CCC[C@H]1C(=O)O)C(C)C)C(C)C)[C@@H](C)O` [Peptide 36] (H-EAGVDAASVSEEFRADHPFLFCIKHIATNAVLFFGRCVSP-OH), the “% inhibition, classical pathway (CP)” value ([1]; 200 μM peptide) is reported as 25% and the “% inhibition, alternative pathway (AP)” value ([2]; 200 μM peptide) is reported as 0%.

In the case of “FLEAIPMSIPPIVRFNRPFLLIIVPTDTQNIFFLSKVTNPSKPR [Peptide 32]”, the “% inhibition, classical pathway (CP)” value ([1]; 200 μM peptide) is reported as 90% and the “% inhibition, alternative pathway (AP)” value ([2]; 200 μM peptide) is reported as 0%.

IDGRIVEGSRVTFKANRPFLVFI [Peptide 18] was tested, and the “% inhibition, classical pathway (CP)” value ([1]; 50 μM peptide) was 100% and the “% inhibition, alternative pathway (AP)” value ([2]; 50 μM peptide) was 20%.

In the case of IVRFNRPFLLII [Peptide 3], the “% inhibition, classical pathway (CP)” value ([1]; 200 μM peptide) is reported as 100% and the “% inhibition, alternative pathway (AP)” value ([2]; 200 μM peptide) is reported as 38%.

With “IVRFNRPFLLIIVPTDTQNIFFLSKVTNPSKPR [Peptide 22]” the “% inhibition, classical pathway (CP)” value ([1]; 100 μM peptide) was 100% and the “% inhibition, alternative pathway (AP)” value ([2]; 100 μM peptide) was 86%.

For “LRYNKPFILVLFETPGNSLVFLGRISNPATK [Peptide 23]”, the “% inhibition, classical pathway (CP)” value ([1]; 25 μM peptide) was 100% and the “% inhibition, alternative pathway (AP)” value ([2]; 25 μM peptide) was 100%.

In the case of PNRVTFKANRPFLVFI [Peptide 2], the “% inhibition, classical pathway (CP)” value ([1]; 200 μM peptide) is reported as 100% and the “% inhibition, alternative pathway (AP)” value ([2]; 200 μM peptide) is reported as 59%.

For “RDKGQAGLQRALEILQEEDLIDEDRVTFKANRPFLVFI [Peptide 55]”, the “% inhibition, classical pathway (CP)” value ([1]; 100 μM peptide) was 0% and the “% inhibition, alternative pathway (AP)” value ([2]; 100 μM peptide) was 0%.

“RDKGQAGLQRALEILQEEDLRVTFKANRPFLVFI [Peptide 58]” was tested, and the “% inhibition, classical pathway (CP)” value ([1]; 50 μM peptide) was 0% and the “% inhibition, alternative pathway (AP)” value ([2]; 50 μM peptide) was 0%.

“RDKGQAGLQRALEILQRVTFKANRPFLVFI [Peptide 57]” was tested, and the “% inhibition, classical pathway (CP)” value ([1]; 50 μM peptide) was 82% and the “% inhibition, alternative pathway (AP)” value ([2]; 50 μM peptide) was 100%.

In the case of RDKGQAGLQRALRVTFKANRPFLVFI [Peptide 56], the “% inhibition, classical pathway (CP)” value ([1]; 100 μM peptide) is reported as 39% and the “% inhibition, alternative pathway (AP)” value ([2]; 100 μM peptide) is reported as 0%.

For “RVTFKANRPFLVFIREVPLNTIIFLGRVANP [Peptide 21]”, the “% inhibition, classical pathway (CP)” value ([1]; 200 μM peptide) was 90% and 100%, the “% inhibition, alternative pathway (AP)” value ([2]; 50 μM peptide) was 86% and the “% inhibition, alternative pathway (AP)” value ([2]; 200 μM peptide) was 85%.

“RVTFKANRPFLVFIREVPLNTIIFLGRVANPAVK [Peptide 53]” was tested, and the “% inhibition, classical pathway (CP)” value ([1]; 6 μM peptide) was 100% and the “% inhibition, alternative pathway (AP)” value ([2]; 6 μM peptide) was 100%.

SPFRSVQVMRVTFKANRPFLVFI [Peptide 16] was tested, and the “% inhibition, classical pathway (CP)” value ([1]; 50 μM peptide) was 100% and the “% inhibition, alternative pathway (AP)” value ([2]; 100 μM peptide) was 58%.

For “VKFNKPFVFLLIEQNTKSPLFLGKVVNPTQK [Peptide 20]”, the “% inhibition, classical pathway (CP)” value ([1]; 100 μM peptide) was 90% and the “% inhibition, alternative pathway (AP)” value ([2]; 100 μM peptide) was 80%.
